Experimental data published in PubChem BioAssay AID624171 (National Center for Advancing Translational Sciences (NCATS), 2012).
The campaign covered roughly 410,000 compounds. About 1,200 (0.29%) were called active. This list was built around the results that the source calls inconclusive (neither active nor inactive); the mix of calls is not that of the screen. Calls come from the whole dose curve; as a rule, active = well fitted activation curve with a large enough effect; inconclusive = small, poorly fitted or top-dose-only effect; inactive = flat fitted curve, though single readings scatter. Potencies beside an inconclusive call are fits to weak or partial responses and may not hold up.

Assay: qHTS of Nrf2 Activators; note: nearly all actives have a fitted effect of over 65% in size; for activation: % of control where 0% means no effect
Settings: AREc32 ARE-luciferase reporter (MCF7-derived line), luminescence, 24 h; activation: at 46.1 µM (top of the series)
How it was run: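 ARE activation measured as luciferase luminescence (Steady-Glo, 30 min RT) in AREc32_Fluc cells after 24 hr compound exposure at 37 deg C, 5% CO2; cells seeded overnight at 1000/well in OPTI-MEM, 5% FBS.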
Potency is the fitted concentration of half-maximal effect; tags give direction and shape of the fitted curve.

SMILES | Potency | activation
O=c1oc(-c2ccc(Br)cc2)nc2ccccc12 | inconclusive: 15.8 µM [activator, partial curve, poor fit] | 
Cc1ccc(Nc2nc3ccccc3o2)cc1F | inconclusive: 11.2 µM [activator, partial curve, poor fit] | 
Cc1nnc2c(-c3ccccc3)nc3ccccc3n12 | inconclusive: 12.6 µM [activator, partial curve, poor fit] | 
O=C1CSC(=S)N1/N=C/C=C/c1ccccc1 |  | inactive: 5.7%
CC(=O)N1CCN(C(=O)COC(=O)/C=C/c2ccc(C(F)(F)F)cc2)CC1 | inconclusive: 35.5 µM [activator, single point] | 
CCCSc1nnc2c(n1)OC(c1cccs1)Nc1ccc(Br)cc1-2 (centres undefined) | inconclusive: 12.6 µM [activator, single point] | 
C/C(=N\NC(=S)NC(C)C)c1ccc(Cl)s1 | inconclusive: 3.98 µM [activator, single point] | 
CNC(=O)C1CCN(S(=O)(=O)c2c(C)noc2/C=C/c2ccccc2F)CC1 | inconclusive: 8.91 µM [activator, partial curve, poor fit] | 
COc1cccc2cc(-c3nc4ccccc4[nH]3)c(=O)oc12 | inconclusive: 2.51 µM [activator, full curve, poor fit] | 
CC[C@]12C(=O)N(C)C[C@H]([C@@H]3C(=O)N(C)C(=O)[C@@H]31)N2C(=O)c1ccc(Cl)c(Cl)c1 |  | inactive: -0.339%
CCCOc1ccccc1C1C(C(=O)Nc2ccccc2)=C(C)Nc2nnnn21 (centres undefined) | inconclusive: 25.1 µM [activator, partial curve, poor fit] | 
Cc1ccc(S(=O)(=O)C(CNS(=O)(=O)c2ccc(F)c(C(F)(F)F)c2)c2ccco2)cc1 (centres undefined) | inconclusive: 10 µM [activator, partial curve, poor fit] | 
O=C(COC(=O)c1cccs1)Nc1ccccc1[N+](=O)[O-] | active: 11.2 µM | 
CC(=C/C(=O)O)/C=C/c1ccco1 | inconclusive: 25.1 µM [activator, single point] | 
N#CC1=C(N)Oc2n[nH]c(-c3ccccc3)c2C1c1ccsc1 (centres undefined) | inconclusive: 31.6 µM [activator, single point] | 
COC(=O)c1ccc2nc(-c3ccco3)c(Cc3ccc(OC)cc3C)n2c1 | active: 11.2 µM | 
CSc1ccc(/C=C/C(=O)c2ccc(NC(=O)C(C)C)cc2)cc1 | inconclusive: 35.5 µM [activator, single point] | 
CCn1c(/C=C/c2ccccc2F)nc2ccccc2c1=O | active: 2.82 µM | 
COc1ccc(/C=C2\CC/C(=C\c3ccc(OC)cc3OC)C2=O)c(OC)c1 |  | inactive: -0.452%
COc1ccc(OCCn2nnc3sc4c(c3c2=O)CCCC4)cc1 |  | inactive: -0.234%
Oc1oc(-c2ccccc2Br)nc1/C=N/c1ccccn1 | inconclusive: 7.94 µM [activator, partial curve, poor fit] | 
CC(=O)Nc1cc(-c2ccc(CO)cc2)cn2c(-c3ccc(F)c(Cl)c3)cnc12 | inconclusive: 15.8 µM [activator, single point] | 
Cc1ccccc1NC(=O)C(=Cc1ccc(C(=O)O)cc1)C(=O)Nc1ccccc1C | inconclusive: 3.16 µM [activator, partial curve, poor fit] | 

SMILES | Potency | activation
Oc1ccc2ccccc2c1/C=C/c1ccc2c(Br)cc(Br)c(O)c2n1 | inconclusive: 5.01 µM [activator, full curve] | 
O=C(c1ccncc1)N1CCCC(N2CCN(c3cccc(C(F)(F)F)c3)CC2)C1 (centres undefined) |  | inactive: 0.282%
CCC(C)(C)NC(=O)C(c1ccc(C)cc1)N(Cc1cccnc1)C(=O)c1csnn1 (centres undefined) |  | inactive: 0.187%
Fc1cccc(Nc2cc(-n3cccn3)ncn2)c1 | inconclusive: 6.31 µM [activator, full curve] | 
Cc1cccc(NCCC(=O)c2ccc(Br)cc2)c1 | inconclusive: 15.8 µM [activator, partial curve, poor fit] | 
COc1ccc(CCN(C)Cc2c(O)ccc3cc(Br)ccc23)cc1OC | inconclusive: 31.6 µM [activator, single point] | 
CCCCCn1nc(C(=O)N2CCc3ccccc32)c2ccccc2c1=O |  | inactive: 0.359%
O=C(COC(=O)/C=C/c1ccccc1)Nc1ccccc1Br | inconclusive: 22.4 µM [activator, single point] | 
Cc1c(C)c2cc(Cl)c(OCC(=O)Nc3ccccn3)cc2oc1=O |  | inactive: -1.09%
O=C(/C=C/c1ccc2c(c1)OCO2)c1ccc(O)cc1O | inconclusive: 7.08 µM [activator, partial curve, poor fit] | 
CC(C)c1onc(C(=O)Nc2ccc3c(c2)OCO3)c1[N+](=O)[O-] | inconclusive: 35.5 µM [activator, single point] | 
COc1ccccc1-c1nc2n(n1)C(c1ccccc1Cl)C(C(=O)Nc1cccnc1)=C(C)N2 (centres undefined) |  | inactive: 3.32%
O=C(CSc1nc(-c2ccccc2)nn1C(=O)c1ccccc1)Nc1cccc([N+](=O)[O-])c1 | inconclusive: 3.55 µM [activator, single point] | 
COc1cccc(C2=CC(c3cc(OC)ccc3OC)n3nnnc3N2)c1 (centres undefined) | inconclusive: 35.5 µM [activator, single point] | 
O=C(NC(=S)Nc1ccc2nc[nH]c2c1)c1ccccc1 |  | inactive: -0.247%
O=C(Nc1ccc(Cc2ccncc2)cc1)c1ccc([N+](=O)[O-])o1 | inconclusive: 5.62 µM [activator, single point] | 
CC1CCc2c(C(=O)Nc3ccccn3)csc2C1 (centres undefined) | inconclusive: 14.1 µM [activator, single point] | 
CC(=O)Nc1ccc(S(=O)(=O)NC2(C(F)(F)F)C(=O)Nc3c2c(=O)[nH]c(=O)n3-c2cccc(Cl)c2)cc1 (centres undefined) |  | inactive: 0.456%
Cc1ccc(Nc2c(-c3c[nH]c4ccccc34)nc3ccccn23)cc1 | inconclusive: 15.8 µM [activator, single point] | 
COc1ccc(OC)c(CCNC(=O)c2cc3c(s2)-c2c(C)cccc2OC3)c1 |  | inactive: 2.89%
CC(OC(=O)/C=C/c1ccc2ccccc2n1)C(=O)NCc1ccccc1 (centres undefined) | inconclusive: 12.6 µM [activator, single point] | 
Cc1ccccc1Oc1nc2c(C)cccn2c(=O)c1/C=C(\C#N)C(=O)NC1CCS(=O)(=O)C1 (centres undefined) | inconclusive: 17.8 µM [activator, single point] | 
COC(=O)c1ccc(NC(=O)c2cccc(OC)c2)cc1 |  | inactive: 0.382%

SMILES | Potency | activation
O=c1[nH]nc(SCCS(=O)(=O)c2ccc(F)cc2)n1-c1ccccc1C(F)(F)F | active: 11.2 µM | 
COc1cc(CO)ccc1Oc1nnnn1-c1ccc(C(N)=O)cc1 | inconclusive: 15.8 µM [activator, single point] | 
Cc1sc(NC(=O)CSc2ncn(-c3ccccc3)n2)nc1-c1ccccc1 |  | inactive: 4.08%
CC(=O)Oc1ccc(N2C(=O)C3C(C2=O)C(C(=O)c2ccc(Cl)cc2)N2CCCC32)cc1 (centres undefined) | inconclusive: 6.31 µM [activator, partial curve, poor fit] | 
Cc1nn(-c2ccc(F)cc2)c(C)c1CN1CCN(CCc2ccccc2)C(CCO)C1 (centres undefined) |  | inactive: 0.353%
Cc1nn(Cc2cccc(F)c2)c(C)c1NC(=O)c1ccc(COc2ccccc2Cl)cc1 |  | inactive: -0.205%
Cc1ccc(O)c(-c2cc(-c3ccccc3F)[nH]n2)c1 | inconclusive: 6.31 µM [activator, partial curve, poor fit] | 
O=C(/C=C/c1ccco1)Nc1ccccc1N1CCOCC1 | inconclusive: 3.16 µM [activator, partial curve, poor fit] | 
Cc1nc2ccccc2c(=O)n1/N=C/c1ccccc1F | inconclusive: 17.8 µM [activator, partial curve, poor fit] | 
C=CCNc1nc(N)c(C(=O)c2ccc3c(c2)OCO3)s1 | inconclusive: 11.2 µM [activator, partial curve] | 
CC1=C(C(=O)N2CCCCCC2)CC(CC(=O)NC2CCCC2)C(=O)N1Cc1ccc(C(C)(C)C)cc1 (centres undefined) |  | inactive: 5.34%
CCOCCCNC(=O)c1ccc(-n2c(-c3ccccc3)cc3c2CCCC3)cc1 | active: 11.2 µM | 
Cc1cc2nc(-c3cccc(NC(=O)c4cccc5ccccc45)c3)oc2cc1C |  | inactive: 1.74%
Cc1ccc(NC2=C/C(=N\S(=O)(=O)c3cccs3)c3ccccc3C2=O)c(C)c1 |  | inactive: -2.26%
O=C(Nc1ccccc1O)c1cccc(NC(=O)c2ccco2)c1 | active: 7.94 µM | 
COc1ccccc1NC(=O)CSc1c2c(nc3ccccc13)CCC2 | inconclusive: 20 µM [activator, single point] | 
O=[N+]([O-])c1cccc(-c2cc3ccccc3[nH]2)c1 | inconclusive: 7.94 µM [activator, partial curve] | 
COC(=O)c1cc2c(s1)-c1ccccc1CC2 | inconclusive: 31.6 µM [activator, single point] | 
O=[N+]([O-])c1c(NCc2ccco2)ncnc1NCc1ccco1 | inconclusive: 11.2 µM [activator, partial curve, poor fit] | 
Cc1nc(Cl)sc1C(=O)Nc1ccccc1 | inconclusive: 31.6 µM [activator, partial curve, poor fit] | 
Cc1ccc2oc(-c3ccc(C)c(NC(=O)/C=C/c4ccco4)c3)nc2c1 | inconclusive: 11.2 µM [activator, partial curve] | 
O=C(Cn1cnc2sc(-c3ccccc3)cc2c1=O)NCc1ccco1 | inconclusive: 15.8 µM [activator, single point] | 
COC(=O)c1sccc1NC(=O)c1cccnc1 | inconclusive: 8.91 µM [activator, partial curve] | 
